# Laboratory results published in PubChem BioAssay AID588342 (National Center for Advancing Translational Sciences (NCATS), 2011).
# Hit rate of the full screen: of about 360,000 compounds, about 25,000 (6.9%) were called active. The shares of active, inactive and inconclusive entries below differ from those in the screen. Calls come from the whole dose curve; as a rule, active = well fitted inhibition curve with a large enough effect; inconclusive = small, poorly fitted or top-dose-only effect; inactive = flat fitted curve, though single readings scatter. Where the call is inconclusive, the potency comes from a doubtful curve fit.
# Molecular target: Luciferin 4-monooxygenase (Photinus pyralis) (UniProt P08659)
# Experiment: qHTS profiling assay for firefly luciferase inhibitor/activator using purifed enzyme and Km concentrations of substrates (counterscreen for miR-21 project); note: nearly all actives have a fitted effect of over 55% in size;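 for activity change, negative = inhibition: plate controls were vehicle for no effect and reference inhibitor for full effect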
# Conditions: purified FLuc, luminescence inhibition; series mostly up to 57.5 µM; activity change, negative = inhibition: at the top concentration
# Outline: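 Biochemical qHTS of compounds, final roughly 60 µM downward over six points, against 10 nM purified firefly luciferase using Km concentrations of substrates (10 uM D-luciferin, 10 uM ATP) in Tris acetate pH 7.5 buffer; luminescence output.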
# Potency is the fitted concentration of half-maximal effect; tags give direction and shape of the fitted curve.
# UniProt P08659, sequence (P08659 whole entry, looked up): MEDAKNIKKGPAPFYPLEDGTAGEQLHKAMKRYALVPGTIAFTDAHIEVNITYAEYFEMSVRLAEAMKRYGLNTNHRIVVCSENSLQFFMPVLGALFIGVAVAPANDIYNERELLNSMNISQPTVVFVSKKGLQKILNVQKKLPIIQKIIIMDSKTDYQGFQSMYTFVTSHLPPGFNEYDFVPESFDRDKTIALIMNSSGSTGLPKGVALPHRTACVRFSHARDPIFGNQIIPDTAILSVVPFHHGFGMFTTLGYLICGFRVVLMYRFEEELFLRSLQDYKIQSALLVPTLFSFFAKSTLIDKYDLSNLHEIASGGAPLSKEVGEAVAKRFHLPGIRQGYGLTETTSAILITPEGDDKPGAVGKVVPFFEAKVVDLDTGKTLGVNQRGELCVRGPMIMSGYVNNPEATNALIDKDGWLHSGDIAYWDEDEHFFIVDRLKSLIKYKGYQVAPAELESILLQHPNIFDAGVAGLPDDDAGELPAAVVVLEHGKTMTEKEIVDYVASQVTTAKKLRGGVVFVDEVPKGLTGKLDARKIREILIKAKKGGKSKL
Compound,"activity change, negative = inhibition",Potency
CCN(CC)c1ccc(S(=O)(=O)N2CCCCC2)cc1NC(=O)C1CCC1,inactive: -7.16%,–
CCCCNC(=O)c1sc(=S)n2c1[nH]c(=O)c1ccc(C(=O)NCCc3ccc(OC)c(OC)c3)cc12,–,"inconclusive: 37.9 µM [inhibitor, partial curve, poor fit]"
CCCCCCOc1ccc(OCC(O)CN2C(=O)NC(C)(C)C2=O)cc1 (configuration not stated),–,"inconclusive: 30.1 µM [inhibitor, single point]"
COc1ccc(S(=O)(=O)N2CCOCC2)cc1NC(=O)c1cccs1,inactive: 1.12%,–
O=C1NC(c2cc(Cl)cc([N+](=O)[O-])c2O)Nc2ccccc21 (configuration not stated),–,"inconclusive: 37.9 µM [inhibitor, partial curve, poor fit]"
c1ccc2c(c1)ncn2Cc1nnc2sc(-c3ccc4c(c3)OCO4)nn12,–,"inconclusive: 37.9 µM [inhibitor, partial curve, poor fit]"
COc1ccc(OC)c2sc(N(Cc3cccnc3)C(=O)c3ccc(C(C)=O)cc3)nc12,inactive: -13.8%,–
O=C(O)c1ccc(CNC(=O)c2ccccc2NC(=O)c2ccc([N+](=O)[O-])cc2)cc1,–,"inconclusive: 30.1 µM [inhibitor, partial curve, poor fit]"
COc1ccc(C(=O)Nc2cccc(NC(=O)c3cccs3)c2)cc1OC,–,active: 10.7 µM
COc1cc2cc(C)nc(Cc3cccc4ccccc34)c2cc1OC,–,"inconclusive: 19 µM [inhibitor, partial curve, poor fit]"
O=c1c2c(-c3ccccc3)csc2ncn1/N=C/c1ccc(O)c([N+](=O)[O-])c1,–,"inconclusive: 23.9 µM [inhibitor, partial curve, poor fit]"
CC(C)C(=O)Nc1ccc(Nc2ccccc2)cc1,–,active: 19 µM
O=C(NN=C1c2ccccc2-c2ccccc21)c1ccccn1,–,active: 5.36 µM
O=C(O)c1cccc(NC(=S)N/N=C/c2c[nH]c3ccccc23)c1,–,active: 0.757 µM
COc1cccc(NC(=O)C(=O)NCCc2ccc(F)cc2)c1,–,"inconclusive: 16.9 µM [inhibitor, partial curve]"
O=C(CSc1nc(=O)[nH]c2c1CCCC2)NCc1ccc(Cl)cc1,inactive: -2.82%,–
O=C(c1ccccc1O)N1N=C(c2ccccc2)CC1(O)C(F)(F)F (configuration not stated),–,"inconclusive: 16.9 µM [inhibitor, partial curve, poor fit]"
CC(=O)NNC(=O)CN1C(=O)/C(=C/c2ccccc2)SC1=S,–,"inconclusive: 23.9 µM [inhibitor, partial curve]"
Fc1ccc(-c2nnc(CN3CCC(c4nc5ccccc5s4)CC3)o2)cc1,–,"inconclusive: 23.9 µM [inhibitor, partial curve, poor fit]"
COC(=O)c1cccc(-n2c(C)cc(C=O)c2C)c1,inactive: -0.591%,–
COC(=O)COc1ccc(-c2ccc(F)cc2)cc1C=O,–,"inconclusive: 23.9 µM [inhibitor, single point]"

Compound,"activity change, negative = inhibition",Potency
Clc1ccccc1-c1nnn(Cc2ccc(-c3nn[nH]n3)cc2)n1,–,"inconclusive: 23.9 µM [inhibitor, single point]"
Cc1cc(C)cc(C(=O)Nc2nnc(SCC(=O)N3CCCc4ccccc43)s2)c1,–,"inconclusive: 23.9 µM [inhibitor, single point]"
COc1ccc(-n2nc(C(=O)NCC(=O)N3CCCC(C)C3)c3ccccc3c2=O)cc1Cl (configuration not stated),–,active: 5.36 µM
Fc1cccc(CSc2ccc(-c3ccc4c(c3)OCO4)nn2)c1,–,active: 10.7 µM
Cc1c(C(=O)N(C)C)sc2c1c(=O)n(-c1ccc(F)cc1)c(=O)n2CC(=O)N(C)c1ccccc1,inactive: 0.935%,–
NS(=O)(=O)c1cc(C(=O)OCC(=O)Nc2ccc(N3CCCCC3)cc2)ccc1Cl,–,"inconclusive: 15.1 µM [inhibitor, partial curve]"
Cc1ccc(C)c(NC(=O)Cn2c(=O)oc3cc(S(=O)(=O)NCc4ccccc4)ccc32)c1,–,"inconclusive: 12 µM [inhibitor, partial curve, poor fit]"
Cc1cc2oc(C(=O)Nc3ccc(S(=O)(=O)Nc4onc(C)c4C)cc3)cc(=O)c2cc1C,–,"inconclusive: 23.9 µM [inhibitor, partial curve, poor fit]"
COc1cc(C=O)c(Br)cc1OCc1ccc(C)cc1,–,"inconclusive: 26.9 µM [inhibitor, single point]"
O=C(COc1ccccc1Cl)Nc1cccnc1,–,active: 19 µM
O=C(CSc1ccccn1)Nc1ccc(Br)cn1,–,"inconclusive: 30.1 µM [inhibitor, partial curve, poor fit]"
CCOc1ccc(-n2c(SC(C)C(=O)OC)nc3c([nH]c4ccccc43)c2=O)cc1 (configuration not stated),inactive: 3.8%,–
CCN1CCN(c2cc(N3CCN(C(=O)c4ccco4)CC3)c3c4c(onc24)-c2ccccc2C3=O)CC1,–,"inconclusive: 19 µM [inhibitor, partial curve]"
COc1ccc(-c2nc(SC(C)C(=O)Nc3ccc(NC(C)=O)cc3)n[nH]2)cc1 (configuration not stated),–,"inconclusive: 26.9 µM [inhibitor, single point]"
CC(=O)c1ccccc1C(=O)N1CCCC(C(=O)c2ccc(C(F)(F)F)cc2)C1 (configuration not stated),–,"inconclusive: 37.9 µM [inhibitor, single point]"
COc1ccc(NC(=O)c2coc3ccccc23)cc1OC,–,active: 13.5 µM
CCN1/C(=C/c2ccc3ccccc3[n+]2CCCS(=O)(=O)[O-])C=Cc2cc(C)ccc21,–,"inconclusive: 23.9 µM [inhibitor, single point]"
COc1cc(C(=O)OC2CC3CCC2(C)C3(C)C)ccc1OC(C)=O (configuration not stated),–,"inconclusive: 37.9 µM [inhibitor, single point]"
Cc1occc1C(=O)NNC(=S)Nc1ccccc1,–,"inconclusive: 10.7 µM [inhibitor, partial curve]"
COc1ccc2[nH]c(=O)c(CNc3ccccc3)cc2c1,–,"inconclusive: 21.3 µM [inhibitor, single point]"
COc1ccc(-c2csc(NC(=O)Cc3cccc4ccccc34)c2C(=O)O)cc1,–,"inconclusive: 26.9 µM [inhibitor, single point]"
